Data reported in PubChem BioAssay AID2546 (National Center for Advancing Translational Sciences (NCATS), 2010).
Among all 310,000 compounds or so, about 11,000 (3.5%) were called active. Inconclusive means that the source gave no clear call. Such entries were picked first, then a sample of the others. Calls follow the shape of the dose curve; as a rule, active = well fitted inhibition curve with a large enough effect; inconclusive = small, poorly fitted or top-dose-only effect, or effect the other way; inactive = flat fitted curve, though single readings scatter. No potency is given beside an inconclusive call; the fits are too rough.
% is scaled to controls: 0 for no effect and ±100 for the full control effect; potency is read from the fitted curve at half-maximal effect; tags tell the direction and shape of the fitted curve.

Assay: VP16 counterscreen qHTS for inhibitors of ROR gamma transcriptional activity;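 also: Gal4-VP16 expression switched on by copper sulfate through the metallothionein promoter; nearly all actives have a fitted effect of over 50% in size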
Settings: Drosophila S2 Gal4-VP16 UAS-luciferase, luminescence, 20 h; activity, negative = inhibition: at 53.6 µM (top of the series)
In the case of `C=CCn1c(=NC(=O)c2cc(Cl)sc2Cl)sc2cc(S(N)(=O)=O)ccc21`, the Potency was inconclusive [inhibitor, single point]. With `CN(C)C(=S)NC(=O)c1cccc(Cl)c1` the Potency was active: 2 µM. For `O=C(CCl)Nc1cccc(CP(=O)(c2ccccc2)c2ccccc2)c1`, the Potency was inconclusive [inhibitor, single point]. In the case of `CCOC(=O)C1=C(C)N(c2ccc(OC)cc2)C(=O)/C1=C\c1cccs1`, the “activity, negative = inhibition” value was inactive: -13.1%. With `CC(C)(C)c1ccc(-c2noc(CCC(=O)Nc3cccnc3)n2)cc1` the Potency was inconclusive [inhibitor, single point]. For `CCOc1ccc(/C=C2\SC(=S)N(Nc3ccccc3)C2=O)cc1OC`, the Potency was inconclusive [activator, full curve, poor fit]. With `O=C(c1cc2ccccc2o1)N1CCCC1` the Potency was inconclusive [activator, partial curve, poor fit]. For `O=C(Nc1cccc([N+](=O)[O-])c1)Nc1ccc2c(c1)OCCO2`, the “activity, negative = inhibition” value was inactive: -0.795%. For `NC(=S)N/N=C/c1ccc(Br)o1`, the Potency was inconclusive [inhibitor, single point]. For `CC(C)CCNC(=O)c1ccc2c(Cl)c3c(nc2c1)CCC3`, the Potency was inconclusive [inhibitor, partial curve]. With `CC(=O)Oc1c(C)cc(O)c2ccccc12` the Potency was inconclusive [inhibitor, single point]. With `Cc1c(C(=O)Nc2nc3ccccc3[nH]2)cccc1[N+](=O)[O-]` the Potency was active: 10 µM. With `O=C(NCc1cc([N+](=O)[O-])ccc1O)c1cccnc1Sc1ccccc1` the Potency was active: 11.2 µM. With `O=[N+]([O-])c1ccc(S(=O)(=O)N/N=C/c2ccsc2)cc1` the “activity, negative = inhibition” value was inactive: 19.6%. For `COc1cc(SC)ccc1C(=O)Nc1ccc(Br)cn1`, the Potency was active: 7.94 µM. In the case of `Cc1cc(C)cc(NC(=O)COc2ccc3c(C)c(Cc4ccccc4)c(=O)oc3c2)c1`, the “activity, negative = inhibition” value was inactive: -11.8%. For `Cc1ccc(NC(=O)n2ncc3c(C)cccc32)cc1F`, the Potency was inconclusive [inhibitor, partial curve, poor fit]. For `O=C(O)c1ccc(N=NN2CCCCCC2)cc1`, the Potency was inconclusive [inhibitor, single point]. With `Cc1c(OC(C)C(=O)NCc2ccccn2)ccc2c3c(c(=O)oc12)CCCC3` (stereo not drawn) the “activity, negative = inhibition” value was inactive: -20.8%. In the case of `C=CCNC(=S)N1CCN(c2cccc(C(F)(F)F)c2)CC1`, the Potency was inconclusive [inhibitor, single point]. With `Cc1cc(C(=O)N/N=C/c2c(C)[nH]n(-c3ccccc3)c2=O)n[nH]1` the Potency was inconclusive [inhibitor, single point]. With `CS(=O)(=O)N1CCC(C(=O)NNC(=O)Nc2ccc(F)c(Cl)c2)CC1` the “activity, negative = inhibition” value was inactive: 9.94%. In the case of `CC(=O)Nc1ccc2nc(-c3ccncc3)[nH]c2c1`, the “activity, negative = inhibition” value was inactive: -5.63%. For `Cc1ccc(-c2cc(C(=O)N3CCN(c4ccc(F)cc4)CC3)c3ccccc3n2)o1`, the “activity, negative = inhibition” value was inactive: -0.802%. With `O=C(NC1CCCCC1)N1CCN(c2nc(-c3ccccc3)cs2)CC1` the Potency was inconclusive [inhibitor, single point]. With `COc1cccc(C2(O)CC(C(F)(F)F)=NN2C(=O)c2ccccn2)c1` (stereo not drawn) the Potency was active: 6.31 µM. In the case of `Cc1cc(C)n2nc(CC(=O)NCc3ccccc3Cl)nc2n1`, the “activity, negative = inhibition” value was inactive: -1.36%. For `COc1ccc(/C=N/NC(N)=S)cc1OC(=O)c1cccc2ccccc12`, the Potency was active: 5.01 µM. With `Cc1cc(Cl)ccc1NC(=S)NC(C)(C)C` the Potency was active: 15.8 µM. With `Cc1ccc(OCC(=O)N/N=C/c2ccc([N+](=O)[O-])o2)cc1` the Potency was inconclusive [inhibitor, single point]. For `CC(=O)Nc1ccc(/C=C/c2ccc3c([N+](=O)[O-])cccc3n2)cc1`, the Potency was inconclusive [activator, full curve, poor fit]. With `O=C(NNC1=C(C(=O)C(F)(F)F)CCC1)c1cccc(Cl)c1` the Potency was inconclusive [inhibitor, single point]. With `Cc1ccc(S(=O)(=O)NCC(=O)N2CCCC2)cc1` the Potency was inconclusive [inhibitor, single point]. For `O=C(NC(=S)NCc1ccccc1)C1CC1`, the Potency was inconclusive [inhibitor, single point]. For `Cc1cc(NC(=O)c2cccc(S(=O)(=O)N3c4ccccc4CC3C)c2)no1` (stereo not drawn), the Potency was inconclusive [inhibitor, single point]. For `CC1C(=O)NN=C1C(=O)N/N=C/c1ccco1` (stereo not drawn), the Potency was inconclusive [inhibitor, single point]. In the case of `CCOC(=O)C1CCCN(CC(=O)Nc2c(C(=O)OC)[nH]c3ccc(Br)cc23)C1` (stereo not drawn), the Potency was inconclusive [inhibitor, partial curve]. For `CCc1cccc2c(C(=O)CSc3nncn3C)c[nH]c12`, the activity, negative = inhibition was inconclusive: 34.2% [activator]. With `Cc1nc(C(C)N(C)Cc2nc(-c3ccc4c(c3)OCO4)no2)c(C)s1` (stereo not drawn) the Potency was inconclusive [activator, single point]. With `N/C(=N\S(=O)(=O)c1cc(C(F)(F)F)cc(C(F)(F)F)c1)c1ccc(Cl)cc1` the Potency was inconclusive [inhibitor, single point]. For `O=C(COc1cccnc1[N+](=O)[O-])N1CCN(S(=O)(=O)c2ccccc2)CC1`, the Potency was inconclusive [inhibitor, full curve, poor fit]. For `CC(Oc1ccc2c(c1)oc(=O)c1ccccc12)C(=O)NC(Cc1c[nH]c2ccc(O)cc12)C(=O)O` (stereo not drawn), the “activity, negative = inhibition” value was inactive: -1.96%. With `CCOc1cc(C)c(S(=O)(=O)Nc2ccc(F)cc2)cc1C` the Potency was inconclusive [inhibitor, single point]. For `Cc1nn(C)c(C(=O)N/N=C/c2cccc(Oc3ccccc3)c2)c1Br`, the Potency was inconclusive [inhibitor, single point]. For `CC(=O)Oc1ccc(/C=N\NC(=O)c2cc3c(ccc4ccccc43)o2)cc1`, the “activity, negative = inhibition” value was inactive: -1.61%. In the case of `COCCn1c(=O)c(-c2ccc(F)cc2)nc2cnc(Oc3cccc(Cl)c3)nc21`, the “activity, negative = inhibition” value was inactive: 4.45%. For `CCOC(=O)c1c(-c2cccc([N+](=O)[O-])c2)csc1NC(=O)CCCOc1ccccc1`, the Potency was active: 8.91 µM. In the case of `C#CCOc1c(Cl)cc(/C=N/NC(N)=S)cc1OCC`, the Potency was inconclusive [inhibitor, single point]. For `Clc1ccc(-c2cc(-c3nnc4n3CCCCC4)c3ccccc3n2)cc1`, the Potency was active: 3.16 µM. With `S=c1[nH]nc(CCc2ccccc2)n1Cc1ccccc1` the Potency was active: 5.01 µM. For `COc1nc(-c2ccccc2)ccc1-c1noc(C)n1`, the “activity, negative = inhibition” value was inactive: 35.2%. With `COc1ccc(CNC(=S)Nc2ccccc2C)cc1` the Potency was active: 10 µM. In the case of `CCc1ccc(C2CC(c3ccccc3Cl)Nc3nc(N)nn32)cc1` (stereo not drawn), the Potency was inconclusive [inhibitor, partial curve]. In the case of `Cc1ccc2nc(NC(=O)c3ccc(NS(=O)(=O)c4cccs4)cc3)sc2c1`, the Potency was inconclusive [inhibitor, single point]. In the case of `CCc1ccc(/C=C/C(=O)c2cc(Br)ccc(=O)c2O)cc1`, the Potency was inconclusive [inhibitor, single point]. In the case of `COc1ccc(C(c2nnnn2C(C)(C)C)N2CCN(c3nc4ccccc4s3)CC2)cc1` (stereo not drawn), the Potency was inconclusive [inhibitor, single point]. In the case of `Fc1ccc(F)c(NC(=S)NCCc2ccccc2)c1`, the Potency was inconclusive [inhibitor, partial curve, poor fit]. In the case of `COc1cc(SC)ccc1C(=O)Nc1nccs1`, the Potency was inconclusive [inhibitor, partial curve]. With `NS(=O)(=O)c1ccc(CCNC(=O)CNC(=O)c2ccc(Oc3ccccc3)cc2)cc1` the “activity, negative = inhibition” value was inactive: -8.43%. For `Cc1ccc(NC(=S)Nc2ccc3[nH]c(=O)[nH]c3c2)cc1C`, the Potency was inconclusive [inhibitor, single point]. For `CC1=C(C(=O)OCc2ccccc2)C(c2cccc([N+](=O)[O-])c2)NC(=O)N1C` (stereo not drawn), the Potency was inconclusive [inhibitor, partial curve, poor fit]. In the case of `O=C(/C=C/Nc1ccc(F)cc1)c1ccc(Oc2ncccn2)cc1`, the Potency was inconclusive [activator, partial curve, poor fit]. For `O=C(CSc1nc(-c2ccccc2)cs1)NC(=O)NCc1ccco1`, the Potency was inconclusive [inhibitor, single point]. With `COc1cccc(CN(Cc2ccccc2F)S(=O)(=O)c2ccc(S(=O)(=O)NCc3ccccc3)cc2)c1` the Potency was inconclusive [activator, single point]. In the case of `CCOC(=O)N1CCN(S(=O)(=O)c2ccc(C(=O)Nc3nnc(C)o3)cc2)CC1`, the Potency was inconclusive [inhibitor, single point]. For `Cc1ccc(OCCCNC2CCCC2)cc1`, the Potency was inconclusive [activator, single point]. In the case of `Cc1cccc(-c2noc(-c3cc4ccccc4oc3=O)n2)c1`, the Potency was inconclusive [inhibitor, full curve, poor fit]. With `COc1ccc(S(=O)(=O)N2CCN(Cc3ccco3)CC2)cc1` the “activity, negative = inhibition” value was inactive: 4.85%. With `CCOc1ccccc1NC(=O)NC(C)c1ccc2c(c1)OCO2` (stereo not drawn) the “activity, negative = inhibition” value was inactive: -20%. For `Cc1cc(NC(=O)C2CCCCC2)nc2c1c(=O)oc1ccccc12`, the “activity, negative = inhibition” value was inactive: 0%. With `CN(Cc1ccccc1)c1ccc(C(CC(N)=O)NC(=O)c2ccc(Br)cc2)cc1[N+](=O)[O-]` (stereo not drawn) the Potency was inconclusive [inhibitor, single point]. With `Cc1csc(NC(=O)CCc2ccc(S(=O)(=O)N3CCOCC3)cc2)n1` the “activity, negative = inhibition” value was inactive: 4.46%. With `Cc1ccc(C(=O)NCCNc2ccc([N+](=O)[O-])cc2C(F)(F)F)cc1` the Potency was inconclusive [inhibitor, single point].
